Experimental data taken from article PMC8080764.
No constants are given. Whether binding was seen depends on the method and setting. Binding seen in cells or lysates may run through a third protein. Some binding calls cover weakened binding; strength is not graded here. For some assays here: Sequences can lack the tags named with a protein.

T1: serum response factor (SRF), endogenous in C2C12 cells (mouse (endogenous in C2C12)) (UniProt Q9JM73)
T1 sequence: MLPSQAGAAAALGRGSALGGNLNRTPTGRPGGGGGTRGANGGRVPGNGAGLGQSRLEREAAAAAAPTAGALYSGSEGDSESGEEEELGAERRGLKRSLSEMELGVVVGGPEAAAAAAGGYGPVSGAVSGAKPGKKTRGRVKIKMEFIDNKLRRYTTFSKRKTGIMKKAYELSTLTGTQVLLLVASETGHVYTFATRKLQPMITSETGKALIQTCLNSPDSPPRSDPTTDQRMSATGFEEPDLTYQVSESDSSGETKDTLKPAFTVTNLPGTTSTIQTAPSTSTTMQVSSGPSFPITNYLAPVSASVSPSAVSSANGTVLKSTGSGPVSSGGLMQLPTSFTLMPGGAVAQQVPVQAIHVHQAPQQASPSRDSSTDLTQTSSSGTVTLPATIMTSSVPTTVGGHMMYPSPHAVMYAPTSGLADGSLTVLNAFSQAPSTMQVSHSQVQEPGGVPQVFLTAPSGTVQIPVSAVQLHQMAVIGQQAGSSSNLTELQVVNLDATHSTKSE

T2: 3xFlag-KDM2B (pCMV-3xFlag-KDM2B) (UniProt Q8NHM5)
T2 sequence: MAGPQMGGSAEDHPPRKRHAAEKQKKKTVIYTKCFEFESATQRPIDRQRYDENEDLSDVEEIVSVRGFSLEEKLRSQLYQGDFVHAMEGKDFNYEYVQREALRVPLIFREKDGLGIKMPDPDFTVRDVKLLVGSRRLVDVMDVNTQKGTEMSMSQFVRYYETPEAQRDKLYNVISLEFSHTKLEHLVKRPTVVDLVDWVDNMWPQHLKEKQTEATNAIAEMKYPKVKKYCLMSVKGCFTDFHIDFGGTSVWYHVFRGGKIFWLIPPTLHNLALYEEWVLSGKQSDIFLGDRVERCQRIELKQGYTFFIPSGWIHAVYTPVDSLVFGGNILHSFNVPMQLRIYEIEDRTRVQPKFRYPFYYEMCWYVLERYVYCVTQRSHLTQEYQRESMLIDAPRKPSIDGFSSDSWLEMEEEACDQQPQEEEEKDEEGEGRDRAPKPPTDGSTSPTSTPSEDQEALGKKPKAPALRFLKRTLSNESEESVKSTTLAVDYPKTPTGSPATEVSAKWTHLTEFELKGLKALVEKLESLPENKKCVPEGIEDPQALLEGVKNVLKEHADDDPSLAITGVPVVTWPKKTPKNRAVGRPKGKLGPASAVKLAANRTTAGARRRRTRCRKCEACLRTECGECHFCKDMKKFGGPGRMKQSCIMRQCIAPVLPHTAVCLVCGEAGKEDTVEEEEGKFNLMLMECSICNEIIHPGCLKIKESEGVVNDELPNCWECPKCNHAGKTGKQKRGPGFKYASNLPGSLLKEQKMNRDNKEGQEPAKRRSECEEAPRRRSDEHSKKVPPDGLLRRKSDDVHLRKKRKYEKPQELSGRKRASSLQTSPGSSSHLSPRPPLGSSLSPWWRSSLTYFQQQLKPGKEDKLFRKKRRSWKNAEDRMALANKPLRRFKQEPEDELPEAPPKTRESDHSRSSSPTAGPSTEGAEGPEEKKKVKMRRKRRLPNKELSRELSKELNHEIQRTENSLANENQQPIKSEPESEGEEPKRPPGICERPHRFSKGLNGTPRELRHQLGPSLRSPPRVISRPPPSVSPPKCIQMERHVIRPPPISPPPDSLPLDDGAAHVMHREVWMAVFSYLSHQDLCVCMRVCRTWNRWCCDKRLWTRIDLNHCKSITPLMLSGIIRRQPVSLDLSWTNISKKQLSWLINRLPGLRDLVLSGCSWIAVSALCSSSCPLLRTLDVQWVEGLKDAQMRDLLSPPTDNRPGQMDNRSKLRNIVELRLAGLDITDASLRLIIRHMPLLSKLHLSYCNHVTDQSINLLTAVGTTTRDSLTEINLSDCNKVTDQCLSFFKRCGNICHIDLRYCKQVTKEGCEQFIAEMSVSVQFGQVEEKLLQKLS

T3: HA-tagged SRF, full length (pCGN-SRF-HA) (UniProt P11831)
T3 sequence: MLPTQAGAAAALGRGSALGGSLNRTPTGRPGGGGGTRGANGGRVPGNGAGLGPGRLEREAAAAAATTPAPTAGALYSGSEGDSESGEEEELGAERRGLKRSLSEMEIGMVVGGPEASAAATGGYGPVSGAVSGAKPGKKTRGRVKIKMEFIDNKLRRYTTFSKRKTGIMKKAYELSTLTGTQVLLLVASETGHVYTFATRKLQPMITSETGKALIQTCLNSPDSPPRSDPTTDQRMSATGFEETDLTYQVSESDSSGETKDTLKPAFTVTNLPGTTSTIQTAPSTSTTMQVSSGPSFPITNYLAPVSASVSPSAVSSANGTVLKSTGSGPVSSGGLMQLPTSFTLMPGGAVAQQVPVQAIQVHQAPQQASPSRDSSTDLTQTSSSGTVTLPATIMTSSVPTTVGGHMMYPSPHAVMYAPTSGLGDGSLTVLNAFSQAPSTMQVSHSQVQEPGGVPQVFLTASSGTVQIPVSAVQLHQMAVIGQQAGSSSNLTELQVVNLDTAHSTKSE

B1: KDM2B, endogenous in C2C12 cells (protein, UniProt Q6P1G2 1-1309)
chain: MEAEKDSGRRLRAIDRQRYDENEDLSDVEEIVSVRGFSLEEKLRSQLYQGDFVHAMEGKDFNYEYVQREALRVPLVFRDKDGLGIKMPDPDFTVRDVKLLVGSRRLVDVMDVNTQKGTEMSMSQFVRYYETPEAQRDKLYNVISLEFSHTKLEHLVKRPTVVDLVDWVDNMWPQHLKEKQTEATNALAEMKYPKVKKYCLMSVKGCFTDFHIDFGGTSVWYHVFRGGKIFWLIPPTLHNLALYEEWVLSGKQSDIFLGDRVERCQRIELKQGYTFFIPSGWIHAVYTPVDSLVFGGNILHSFNVPMQLRIYEIEDRTRVQPKFRYPFYYEMCWYVLERYVYCVTQRSYLTQEYQRELMLIDAPRKTSVDGFSSDSWLDMEEESCEQQPQEEEEEEEDKEEEGDGADKTPKPPTDDPTSPTSTPPEDQDSTGKKPKAPAIRFLKRTLSNESEESVKSTSMPTDDPKTPTGSPATEVSTKWTHLTEFELKGLKALVEKLESLPENKKCVPEGIEDPQALLEGVKNVLKEHVDDDPTLAITGVPVVSWPKKTAKNRVVGRPKGKLGPASAVKLAANRTTAGARRRRTRCRKCEACLRTECGECHFCKDMKKFGGPGRMKQSCIMRQCIAPVLPHTAVCLVCGEAGKEDTVEEEEGKFNLMLMECSICNEIIHPGCLKIKESEGVVNDELPNCWECPKCNHAGKTGKQKRGPGFKYASNLPGSLLKEQKMNRDNKEGQEPAKRRSECEEAPRRRSDEHPKKVPADGILRRKSDDVHLRRKRKYEKPQELSGRKRASSLQTSPGSSSHLSPRPPLGSSLSPWWRSSLTYFQQQLKPGKEDKLFRKKRRSWKNAEDRLSLANKPLRRFKQEPEDDLPEAPPKTRESDQSRSSSPTAGPSTEGAEGPEEKKKVKMRRKRRLVNKELSKELSKELNHEIQKTESTLAHESQQPIKSEPESENDEPKRPLSHCERPHRFSKGLNGTPRELRHSLGPGLRSPPRVMSRPPPSASPPKCIQMERHVIRPPPISPPPDSLPLDDGAAHVMHREVWMAVFSYLSHRDLCVCMRVCRTWNRWCCDKRLWTRIDLNRCKSITPLMLSGIIRRQPVSLDLSWTNISKKQLSWLINRLPGLRDLVLSGCSWIAVSALCSSSCPLLRTLDVQWVEGLKDAQMRDLLSPPTDNRPGQMDNRSKLRNIVELRLAGLDITDVSLRLIIRHMPLLSKLQLSYCNHINDQSINLLTAVGTTTRDSLTEVNLSDCNKVTDLCLSFFKRCGNICHIDLRYCKQVTKEGCEQFIAEMSVSVQFGQVEEKLLQKLS
B2: HA-tagged SRF, full length (pCGN-SRF-HA) (protein, UniProt P11831 1-508)
chain: MLPTQAGAAAALGRGSALGGSLNRTPTGRPGGGGGTRGANGGRVPGNGAGLGPGRLEREAAAAAATTPAPTAGALYSGSEGDSESGEEEELGAERRGLKRSLSEMEIGMVVGGPEASAAATGGYGPVSGAVSGAKPGKKTRGRVKIKMEFIDNKLRRYTTFSKRKTGIMKKAYELSTLTGTQVLLLVASETGHVYTFATRKLQPMITSETGKALIQTCLNSPDSPPRSDPTTDQRMSATGFEETDLTYQVSESDSSGETKDTLKPAFTVTNLPGTTSTIQTAPSTSTTMQVSSGPSFPITNYLAPVSASVSPSAVSSANGTVLKSTGSGPVSSGGLMQLPTSFTLMPGGAVAQQVPVQAIQVHQAPQQASPSRDSSTDLTQTSSSGTVTLPATIMTSSVPTTVGGHMMYPSPHAVMYAPTSGLGDGSLTVLNAFSQAPSTMQVSHSQVQEPGGVPQVFLTASSGTVQIPVSAVQLHQMAVIGQQAGSSSNLTELQVVNLDTAHSTKSE
B3: 3xFlag-KDM2B (pCMV-3xFlag-KDM2B) (protein, UniProt Q8NHM5 1-1336)
chain: MAGPQMGGSAEDHPPRKRHAAEKQKKKTVIYTKCFEFESATQRPIDRQRYDENEDLSDVEEIVSVRGFSLEEKLRSQLYQGDFVHAMEGKDFNYEYVQREALRVPLIFREKDGLGIKMPDPDFTVRDVKLLVGSRRLVDVMDVNTQKGTEMSMSQFVRYYETPEAQRDKLYNVISLEFSHTKLEHLVKRPTVVDLVDWVDNMWPQHLKEKQTEATNAIAEMKYPKVKKYCLMSVKGCFTDFHIDFGGTSVWYHVFRGGKIFWLIPPTLHNLALYEEWVLSGKQSDIFLGDRVERCQRIELKQGYTFFIPSGWIHAVYTPVDSLVFGGNILHSFNVPMQLRIYEIEDRTRVQPKFRYPFYYEMCWYVLERYVYCVTQRSHLTQEYQRESMLIDAPRKPSIDGFSSDSWLEMEEEACDQQPQEEEEKDEEGEGRDRAPKPPTDGSTSPTSTPSEDQEALGKKPKAPALRFLKRTLSNESEESVKSTTLAVDYPKTPTGSPATEVSAKWTHLTEFELKGLKALVEKLESLPENKKCVPEGIEDPQALLEGVKNVLKEHADDDPSLAITGVPVVTWPKKTPKNRAVGRPKGKLGPASAVKLAANRTTAGARRRRTRCRKCEACLRTECGECHFCKDMKKFGGPGRMKQSCIMRQCIAPVLPHTAVCLVCGEAGKEDTVEEEEGKFNLMLMECSICNEIIHPGCLKIKESEGVVNDELPNCWECPKCNHAGKTGKQKRGPGFKYASNLPGSLLKEQKMNRDNKEGQEPAKRRSECEEAPRRRSDEHSKKVPPDGLLRRKSDDVHLRKKRKYEKPQELSGRKRASSLQTSPGSSSHLSPRPPLGSSLSPWWRSSLTYFQQQLKPGKEDKLFRKKRRSWKNAEDRMALANKPLRRFKQEPEDELPEAPPKTRESDHSRSSSPTAGPSTEGAEGPEEKKKVKMRRKRRLPNKELSRELSKELNHEIQRTENSLANENQQPIKSEPESEGEEPKRPPGICERPHRFSKGLNGTPRELRHQLGPSLRSPPRVISRPPPSVSPPKCIQMERHVIRPPPISPPPDSLPLDDGAAHVMHREVWMAVFSYLSHQDLCVCMRVCRTWNRWCCDKRLWTRIDLNHCKSITPLMLSGIIRRQPVSLDLSWTNISKKQLSWLINRLPGLRDLVLSGCSWIAVSALCSSSCPLLRTLDVQWVEGLKDAQMRDLLSPPTDNRPGQMDNRSKLRNIVELRLAGLDITDASLRLIIRHMPLLSKLHLSYCNHVTDQSINLLTAVGTTTRDSLTEINLSDCNKVTDQCLSFFKRCGNICHIDLRYCKQVTKEGCEQFIAEMSVSVQFGQVEEKLLQKLS
B4: SRF-A (SRF A domain, amino acids 1 to 133) (domain or fragment, UniProt P11831 1-133)
chain: MLPTQAGAAAALGRGSALGGSLNRTPTGRPGGGGGTRGANGGRVPGNGAGLGPGRLEREAAAAAATTPAPTAGALYSGSEGDSESGEEEELGAERRGLKRSLSEMEIGMVVGGPEASAAATGGYGPVSGAVSG
B5: SRF-C (SRF C domain, amino acids 222 to 508) (domain or fragment, UniProt P11831 222-508)
chain: PDSPPRSDPTTDQRMSATGFEETDLTYQVSESDSSGETKDTLKPAFTVTNLPGTTSTIQTAPSTSTTMQVSSGPSFPITNYLAPVSASVSPSAVSSANGTVLKSTGSGPVSSGGLMQLPTSFTLMPGGAVAQQVPVQAIQVHQAPQQASPSRDSSTDLTQTSSSGTVTLPATIMTSSVPTTVGGHMMYPSPHAVMYAPTSGLGDGSLTVLNAFSQAPSTMQVSHSQVQEPGGVPQVFLTASSGTVQIPVSAVQLHQMAVIGQQAGSSSNLTELQVVNLDTAHSTKSE

Assays:
[1] = target: T1, serum response factor (SRF), endogenous in C2C12 cells (mouse (endogenous in C2C12)); test: co-IP; endogenous proteins in undifferentiated C2C12 cells; 0.5% NP40 lysis buffer, antibody on protein A/G agarose overnight at 4 °C
[2] = target: T2, 3xFlag-KDM2B (pCMV-3xFlag-KDM2B); test: co-IP; pCMV-3xFlag-KDM2B and pCGN-HA-SRF (full length or truncations) transfected into 293T cells (cell line of Fig. 3e not named); IP with anti-Flag (KDM2B), inverse IP by HA-SRF; 0.5% NP40 lysis buffer, overnight at 4 °C
[3] = target: T3, HA-tagged SRF, full length (pCGN-SRF-HA); test: as above

| binding [2] | further results | Binder |
| --- | --- | --- |
|  | binding [1]: binds | B1 |
| binds |  | B2 |
|  | binding [3]: binds | B3 |
| no binding |  | B4 |
| no binding |  | B5 |
